The whole screen tested about 50,000 compounds, of which about 800 (1.6%) showed an effect of 50% or more. The list shows a part of the results.
Target: Bcl-2-like protein 10 (Homo sapiens) (UniProt Q9HD36)
Test: TR3 peptide-Bcl-B binding displacers, biochemical primary FP assay, phenotype converters (AID 1240);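 also: 0% = Bcl-B with tracer peptide and DMSO and 100% = tracer peptide lacking Bcl-B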
Details: GST-Bcl-B / FITC-TR3 peptide fluorescence polarization; stronger effect = higher value; compound at 3.75 mg/L

UniProt Q9HD36, sequence (Q9HD36 whole entry, looked up): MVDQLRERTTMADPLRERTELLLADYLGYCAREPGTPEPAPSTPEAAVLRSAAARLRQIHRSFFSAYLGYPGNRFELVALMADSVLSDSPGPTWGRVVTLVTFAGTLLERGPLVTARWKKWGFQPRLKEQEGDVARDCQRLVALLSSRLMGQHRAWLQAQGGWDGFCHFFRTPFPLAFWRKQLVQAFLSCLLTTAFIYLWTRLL

| SMILES | displacement [%] |
| --- | --- |
| C/C(=N\Nc1nc(C)cc(-c2ccccc2)n1)c1ccc(C)cc1 | -6.4 |
| C/C(=N/NC(=O)c1ccc2c(c1)OCO2)c1ccc(Br)s1 | 4.2 |
| CC(=O)c1cccc(NC(=O)/C(=C\c2ccco2)NC(=O)c2cccs2)c1 | -3.7 |
| Cc1ccc(O)c(/C=N/n2cnnc2)c1 | 29.6 |
| CC(C)(C)c1cc(O)c(S(N)(=O)=O)c(C(C)(C)C)c1 | -10.5 |
| COc1cc(-c2nc(-c3ccccc3)c(-c3ccccc3)[nH]2)cc(OC)c1OC | 10.8 |
| COc1ccc(C(=O)N/C(=C/c2ccc(OCCOc3ccccc3OC)cc2)C(=O)NCC2CCCO2)cc1 (stereo not given) | 5.4 |
| COc1ccc(/C(O)=C2\C(=O)C(=O)N(CCCO)C2c2ccc(Br)cc2)cc1 (stereo not given) | -6.7 |
| COc1ccc(/C=C2/C(=O)N(c3ccccc3)N=C2C)c(OC)c1OC | 15.4 |
| O=C1Nc2ccccc2C1(O)c1c[nH]c2ccccc12 (stereo not given) | 7.4 |
| CC(/C=C1\SC(=S)N(c2cccc(Br)c2)C1=O)=C\c1ccccc1 | 11 |
| Cc1ccc(OCCCn2ccnc2)cc1C | 4.7 |
| O=C(Nc1ccc(Cl)c(C(F)(F)F)c1)c1cccs1 | -5.7 |
| Cc1ccc(C(=O)Nc2ccc(Cc3ccncc3)cc2)cc1[N+](=O)[O-] | -1.5 |
| O=C(c1cc(-c2ccccc2)nc2ccccc12)N1CCCc2ccccc21 | 3.8 |
| O=c1[nH]c(N/N=C/c2cccs2)nnc1-c1ccccc1 | -1.6 |
| Cc1ccc(C(=O)/C=C2\C(=O)Nc3ccccc32)cc1 | 6.7 |
| Cc1nnc(NS(=O)(=O)c2c(C(C)C)cc(C(C)C)cc2C(C)C)s1 | 3.7 |
| Cc1ccccc1NC(=O)C1C2CC/C=C\CC/C=C/CCC21 (stereo not given) | -9.6 |
| CSc1nnc2c(n1)OC(c1cccc(C)n1)Nc1ccccc1-2 (stereo not given) | 7.2 |
| CC(C)(C)c1ccc(OCC(=O)N2CCC(C(N)=O)CC2)cc1 | -6 |
| Cc1ccc(NC(=O)/C=C/c2ccco2)cc1C | -4.7 |
| O=C1C(=O)N(c2cccc(C(F)(F)F)c2)C(c2ccccc2[N+](=O)[O-])/C1=C(/O)c1ccccc1 (stereo not given) | -0.3 |
| CN(C)CCN1C(=O)C(=O)/C(=C(/O)c2ccccc2)C1c1ccc([N+](=O)[O-])cc1 (stereo not given) | -8 |

| SMILES | displacement [%] |
| --- | --- |
| O=S(=O)(c1ccc(Cl)cc1)N1CCN(Cc2ccc3c(c2)OCO3)CC1 | 1.9 |
| COc1ccc(C(=O)Nc2ccc(S(=O)(=O)N3CCCC3)cc2)cc1I | -4.4 |
| O/N=C/c1ccccc1OCc1ccccc1 | -9.7 |
| COC(=O)C1=C(O)/C(=C\c2c(F)cccc2Cl)N=C1C | 4.6 |
| Cc1ccc(N2C(=O)NC(=O)/C(=C\c3ccc(O)c(Br)c3)C2=O)cc1 | 3.6 |
| Nc1cccc(NC(=O)c2ccco2)c1 | 9.7 |
| COc1cc(C(=S)N2CCOCC2)cc(OC)c1OC(=O)CCc1ccccc1 | 9.7 |
| O=c1/c(=C/c2ccc(-c3ccc(Cl)cc3Cl)o2)sc2nc3ccccc3n12 | -1.7 |
| COc1cc(/C=C(\C#N)c2nc3ccc(C)cc3[nH]2)cc(OC)c1OC(C)=O | -4.6 |
| Cc1ccc2nc(-c3ccc(-c4ccccc4)cc3)oc(=O)c2c1 | -10.3 |
| C(=C\c1ccccc1)/CN1CCN(c2ncnc3c2cnn3-c2ccccc2)CC1 | -2 |
| COc1ccccc1CNC(=O)c1ccc(NC(C)=O)cc1 | -5.3 |
| CCOCCOC(=O)C1=C(C)N(C)C(=O)NC1c1cccc([N+](=O)[O-])c1 (stereo not given) | -1.2 |
| Cc1c(NC(=O)COc2ccc(Cl)cc2)cccc1[N+](=O)[O-] | 6.5 |
| O=[N+]([O-])c1cccc(S(=O)(=O)NCc2ccco2)c1 | 0.5 |
| Cc1c(C(=O)N2CCN(c3ccccn3)CC2)cccc1[N+](=O)[O-] | 2.7 |
| COc1ccc(C2CC(C(F)(F)F)n3nc(C(=O)O)cc3N2)cc1OC (stereo not given) | 2.4 |
| Cc1cc(/C=C2/SC(=S)NC2=O)c(-c2ccccc2)n1-c1ccccc1 | 0.7 |
| N#CC1=C(Nc2ccc(Cl)cc2)CCC1 | 1.3 |
| COc1ccc(/C=C(\NC(=O)c2ccccc2)C(=O)NCC(C)C)cc1 | 9.7 |
| Cn1c(NC(=O)c2cc(-c3ccc(Br)cc3)nc3ccccc23)cc(=O)n(C)c1=O | -10 |
| CC1CC(Nc2ccccc2)c2ccccc2N1C(=O)COc1ccc(Cl)cc1 (stereo not given) | 9.1 |
| O=c1oc2cc(OCc3c(F)cccc3Cl)c(Cl)cc2c2c1CCC2 | 10.9 |
| CCOc1cc(/C=C2\SC(=S)NC2=O)ccc1OC(C)=O | 12 |

| SMILES | displacement [%] |
| --- | --- |
| Cc1ccc2oc(-c3cccc(NC(=O)COc4ccc(Cl)c(C)c4)c3C)nc2c1 | 6.9 |
| COc1ccccc1/C=C1\SC(=S)N(c2ccc(F)cc2)C1=O | 13.3 |
| COc1ccc(Br)cc1C(=O)Nc1ccc2c(c1)oc1ccccc12 | 5.6 |
| O=C1CC(N2CCN(c3ncccn3)CC2)C(=O)N1c1ccc(I)cc1 (stereo not given) | -7.9 |
| COc1ccc(-n2nc3cc(C)c(NC(=O)COc4ccc(Cl)c(C)c4)cc3n2)cc1 | 5.3 |
| CC(C)Oc1ccccc1NS(=O)(=O)c1ccccc1[N+](=O)[O-] | 7.9 |
| O=C(Cc1c[nH]c2ccccc12)N/N=C/c1cccc(F)c1 | 5.3 |
| COc1ccc(C(=O)N2CCN(Cc3cccc(OC)c3OC)CC2)cc1OC | -8 |
| COc1ccc(N(CC(=O)Nc2cccc(C)c2)S(C)(=O)=O)c(OC)c1 | 4.5 |
| O=C(/C=C/c1ccc2c(c1)OCO2)Nc1ccccc1F | 5.4 |
| COC(=O)C(=CC(C(=O)OC)C(=O)OC)C(=O)OC | 16.9 |
| CS(=O)(=O)N(CC(=O)O)c1ccccc1F | 10.2 |
| CCCc1cc(=O)oc2cc(OCC(=O)c3ccccc3)ccc12 | 3.6 |
| COc1ccc(OC)c(NC(=O)C2CC(=O)N(c3ccc(Br)cc3)C2)c1 (stereo not given) | -4 |
| C=CCN(c1ccc(C(=O)O)cc1)S(=O)(=O)c1ccc(NC(=O)OC)cc1 | -14.8 |
| CC(=O)CCc1oc2ccc(C)cc2c1Cc1ccccc1 | -3.3 |
| COc1ccc(-c2cc(-c3ccccc3)nc(N3CCCCC3)n2)cc1 | -11.3 |
| Cc1cc(OCC(=O)Nc2cccc3nsnc23)ccc1Cl | 38.2 |
| CNC1(c2ccc(OC)cc2)Oc2ccccc2C(C#Cc2ccccc2)=C1C (stereo not given) | 1.6 |
| Cn1c(/C=C(/OC(=O)c2ccc(F)cc2)c2ccc(F)cc2)nc2ccccc21 | -7.7 |
| O=C(Nc1ccc(Br)cc1)c1ccccc1F | 11.9 |
| COc1cccc(/C=C2\SC(=S)N(NC(=O)c3cccnc3)C2=O)c1 | -5.8 |

Source: PubChem BioAssay AID1240 (Sanford-Burnham Center for Chemical Genomics, 2008)
